Results as given in patent publication US20110212108A1, “NEUREGULIN/ERBB SIGNALING AND INTEGRIN” (THE REGENTS OF THE UNIVERSITY OF CALIFORNIA, priority 2008, published 2011).
Substitutions are numbered along the chain they refer to. These are yes or no findings as the source states them, for the method shown. Some entries that bind do so weakly or less than the wild type. Tags and fused reporters may be left off the sequences shown. One block for each binder: values may come before it.

Protein sequences, listed by entry. Tags and fused reporters are not part of them. Lines headed by an entry give the natural chain unless they say otherwise; changes in a name come on top.
UniProt P06756: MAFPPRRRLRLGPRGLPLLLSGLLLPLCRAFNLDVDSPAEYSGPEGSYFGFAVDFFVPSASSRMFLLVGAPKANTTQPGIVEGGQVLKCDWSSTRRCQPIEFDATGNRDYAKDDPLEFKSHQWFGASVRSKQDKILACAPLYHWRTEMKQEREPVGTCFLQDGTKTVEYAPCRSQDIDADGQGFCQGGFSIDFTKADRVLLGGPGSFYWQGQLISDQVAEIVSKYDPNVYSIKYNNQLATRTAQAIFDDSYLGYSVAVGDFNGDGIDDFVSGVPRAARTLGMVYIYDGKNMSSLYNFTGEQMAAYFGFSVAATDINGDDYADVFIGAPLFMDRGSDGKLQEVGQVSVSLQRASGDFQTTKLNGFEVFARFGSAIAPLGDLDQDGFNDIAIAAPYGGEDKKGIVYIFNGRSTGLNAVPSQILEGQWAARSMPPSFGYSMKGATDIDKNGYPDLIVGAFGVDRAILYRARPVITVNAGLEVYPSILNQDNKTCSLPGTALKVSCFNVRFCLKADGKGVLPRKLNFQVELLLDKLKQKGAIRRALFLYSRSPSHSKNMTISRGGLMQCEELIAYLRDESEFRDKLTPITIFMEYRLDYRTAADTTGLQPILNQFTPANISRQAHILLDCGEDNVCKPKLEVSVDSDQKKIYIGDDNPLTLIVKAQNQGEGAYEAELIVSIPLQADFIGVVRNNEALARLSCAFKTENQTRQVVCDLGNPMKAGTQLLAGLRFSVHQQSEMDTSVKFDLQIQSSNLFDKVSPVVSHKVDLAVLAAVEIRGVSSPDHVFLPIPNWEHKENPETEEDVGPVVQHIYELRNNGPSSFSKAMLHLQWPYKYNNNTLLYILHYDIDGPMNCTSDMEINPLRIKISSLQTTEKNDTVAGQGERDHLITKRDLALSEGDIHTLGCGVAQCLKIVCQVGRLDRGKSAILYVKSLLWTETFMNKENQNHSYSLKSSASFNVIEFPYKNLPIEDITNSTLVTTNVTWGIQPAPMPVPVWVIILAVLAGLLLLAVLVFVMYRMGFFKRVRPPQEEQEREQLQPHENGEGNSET
UniProt P23229: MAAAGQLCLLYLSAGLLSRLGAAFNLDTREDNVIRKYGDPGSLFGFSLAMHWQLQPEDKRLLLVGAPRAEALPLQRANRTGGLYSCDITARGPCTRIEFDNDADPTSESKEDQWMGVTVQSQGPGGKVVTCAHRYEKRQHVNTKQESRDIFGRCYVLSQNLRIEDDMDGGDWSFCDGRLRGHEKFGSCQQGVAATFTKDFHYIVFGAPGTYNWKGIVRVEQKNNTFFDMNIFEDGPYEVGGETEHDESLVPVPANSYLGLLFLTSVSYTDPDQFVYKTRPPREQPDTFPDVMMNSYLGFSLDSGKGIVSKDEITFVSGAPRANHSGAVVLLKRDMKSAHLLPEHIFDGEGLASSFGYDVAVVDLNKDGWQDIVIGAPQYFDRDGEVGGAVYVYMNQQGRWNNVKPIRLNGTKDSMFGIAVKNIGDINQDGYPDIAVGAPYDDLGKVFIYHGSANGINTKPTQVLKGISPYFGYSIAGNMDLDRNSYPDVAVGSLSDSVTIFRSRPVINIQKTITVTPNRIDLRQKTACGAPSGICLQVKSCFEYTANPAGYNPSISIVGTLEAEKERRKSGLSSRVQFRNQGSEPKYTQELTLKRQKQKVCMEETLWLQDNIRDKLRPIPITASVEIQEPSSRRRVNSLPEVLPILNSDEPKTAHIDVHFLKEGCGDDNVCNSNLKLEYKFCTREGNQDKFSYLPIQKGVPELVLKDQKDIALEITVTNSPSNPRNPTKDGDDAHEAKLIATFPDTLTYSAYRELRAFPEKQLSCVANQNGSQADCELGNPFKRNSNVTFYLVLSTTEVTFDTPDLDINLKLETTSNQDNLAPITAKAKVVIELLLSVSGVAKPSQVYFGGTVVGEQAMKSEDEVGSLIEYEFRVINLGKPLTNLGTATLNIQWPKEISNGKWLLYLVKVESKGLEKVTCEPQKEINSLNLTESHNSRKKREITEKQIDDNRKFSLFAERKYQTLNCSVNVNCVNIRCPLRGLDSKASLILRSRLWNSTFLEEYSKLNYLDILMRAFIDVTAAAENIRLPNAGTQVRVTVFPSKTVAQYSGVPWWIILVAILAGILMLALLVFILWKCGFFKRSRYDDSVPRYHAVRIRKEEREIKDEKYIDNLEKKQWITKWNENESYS
UniProt P16144: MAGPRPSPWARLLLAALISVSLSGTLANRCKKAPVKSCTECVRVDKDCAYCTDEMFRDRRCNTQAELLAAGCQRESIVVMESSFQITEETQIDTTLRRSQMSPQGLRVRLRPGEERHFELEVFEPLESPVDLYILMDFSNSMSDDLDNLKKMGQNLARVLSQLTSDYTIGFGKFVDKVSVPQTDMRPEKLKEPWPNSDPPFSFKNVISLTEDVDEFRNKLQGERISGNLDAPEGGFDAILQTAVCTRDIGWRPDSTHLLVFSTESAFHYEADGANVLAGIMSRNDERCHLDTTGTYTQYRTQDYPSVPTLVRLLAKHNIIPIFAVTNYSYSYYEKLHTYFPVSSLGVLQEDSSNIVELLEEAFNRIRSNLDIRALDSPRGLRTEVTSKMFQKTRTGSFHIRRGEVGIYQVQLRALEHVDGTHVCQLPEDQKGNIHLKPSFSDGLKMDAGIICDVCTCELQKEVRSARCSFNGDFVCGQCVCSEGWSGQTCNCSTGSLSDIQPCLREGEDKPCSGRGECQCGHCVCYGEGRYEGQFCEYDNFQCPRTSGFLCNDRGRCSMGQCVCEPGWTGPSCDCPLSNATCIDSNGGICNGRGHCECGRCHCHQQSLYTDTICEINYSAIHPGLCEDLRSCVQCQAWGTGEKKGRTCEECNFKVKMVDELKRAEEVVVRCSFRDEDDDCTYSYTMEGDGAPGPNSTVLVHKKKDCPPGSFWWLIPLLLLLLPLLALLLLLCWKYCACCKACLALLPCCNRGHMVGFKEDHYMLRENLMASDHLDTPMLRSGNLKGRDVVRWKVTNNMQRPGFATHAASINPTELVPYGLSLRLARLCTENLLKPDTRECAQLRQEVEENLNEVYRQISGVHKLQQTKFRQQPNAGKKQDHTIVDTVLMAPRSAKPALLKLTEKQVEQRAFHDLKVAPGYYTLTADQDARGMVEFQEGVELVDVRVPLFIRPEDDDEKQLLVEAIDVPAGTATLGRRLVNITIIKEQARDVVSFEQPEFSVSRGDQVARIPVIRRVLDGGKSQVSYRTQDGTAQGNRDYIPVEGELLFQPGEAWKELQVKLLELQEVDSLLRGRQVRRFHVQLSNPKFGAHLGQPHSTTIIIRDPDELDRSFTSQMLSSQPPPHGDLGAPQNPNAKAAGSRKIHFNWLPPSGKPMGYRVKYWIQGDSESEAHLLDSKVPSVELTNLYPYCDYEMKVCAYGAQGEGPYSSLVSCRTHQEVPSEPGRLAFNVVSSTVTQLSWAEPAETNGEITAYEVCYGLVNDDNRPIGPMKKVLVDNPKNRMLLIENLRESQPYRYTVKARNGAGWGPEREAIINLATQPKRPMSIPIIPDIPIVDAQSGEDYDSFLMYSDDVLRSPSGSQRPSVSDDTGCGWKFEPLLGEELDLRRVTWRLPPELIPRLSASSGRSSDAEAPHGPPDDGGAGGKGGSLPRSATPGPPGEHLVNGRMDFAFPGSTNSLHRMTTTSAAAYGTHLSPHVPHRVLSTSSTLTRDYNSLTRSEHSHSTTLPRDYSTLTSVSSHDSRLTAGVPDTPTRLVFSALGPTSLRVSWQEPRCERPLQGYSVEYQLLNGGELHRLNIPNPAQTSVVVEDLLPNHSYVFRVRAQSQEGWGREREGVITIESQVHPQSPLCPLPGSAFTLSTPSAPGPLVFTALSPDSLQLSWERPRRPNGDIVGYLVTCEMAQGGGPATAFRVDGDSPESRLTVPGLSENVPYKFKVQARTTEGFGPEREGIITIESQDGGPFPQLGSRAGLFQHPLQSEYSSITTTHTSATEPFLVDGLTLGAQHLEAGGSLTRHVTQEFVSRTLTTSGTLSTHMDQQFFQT

Key:
[1] = target: soluble recombinant integrin αvβ3 (UniProt P06756); test: ELISA-type assay, GST-NRG1α (175-241) immobilised, soluble αvβ3
[2] = target: soluble recombinant integrin αvβ3 (UniProt P06756); test: ELISA-type assay, wt GST-NRG1 (175-222) immobilised, soluble αvβ3 5 µg/ml with 1 mM Mn2+
[3] = target: human integrin α6β4 on CHO cells (α6β4-CHO) (human) (UniProt P23229+P16144); test: cell adhesion to immobilised NRG1
[4] = target: soluble recombinant integrin αvβ3 (UniProt P06756); test: ELISA-type assay, NRG1 immobilised, soluble αvβ3 5 µg/ml with 1 mM Mn2+
[5] = target: soluble recombinant integrin αvβ3 (UniProt P06756); test: ELISA-type assay, 3KE immobilised, soluble αvβ3 with 1 mM Mn2+
[6] = target: soluble recombinant integrin αvβ3 (UniProt P06756); test: ELISA-type assay, 2KE immobilised, soluble αvβ3 with 1 mM Mn2+

B3: 3KE (175-222) mutant of NRG1 (Lys181/Lys185/Lys187 to Glu), GST fusion protein (ligand, not shown: a dimerising Fc or GST; large carriers; small tags and cut ends)
chain: GTSHLVECAEEEETFCVNGGECFMVKDLSNPSRYLCKCQPGFTGARCT
binding [5]: no binding (tested: soluble αvβ3 5 µg/ml)

B4: 2KE (175-222) mutant of NRG1 (Lys185/Lys187 to Glu), GST fusion protein (ligand, not shown: a dimerising Fc or GST; large carriers; small tags and cut ends)
chain: B3 chain with E7K
binding [6]: no binding (tested: soluble αvβ3 5 µg/ml)

The next lines start with the values.

binding [1]: binds
B1: GST-NRG1α (175-241), wild type (EGF-like motif and α domain of human neuregulin 1α as GST fusion protein) (ligand, not shown: a dimerising Fc or GST)
chain: GTSHLVKCAEKEKTFCVNGGECFMVKDLSNPSRYLCKCQPGFTGARCTENVPMKVQNQEKAEELYQK

binding [2]: binds
binding [3]: binds
binding [4]: binds
B2: GST-NRG1 (175-222), wild type EGF-like domain of human neuregulin 1 as GST fusion protein (ligand, not shown: a dimerising Fc or GST)
chain: B3 chain with E7K, E11K, E13K
